# Results: publication PMC12136788
# The other results are listed elsewhere or left out.
# B1: chr22:35295155:35295256:+|3pUTR|ENSG00000100281|unk|total|mutant (ssRNA)
# RNA: GGGAGUUCUACAGUCCGACGAUCUUUCUUCUCCUGGCCCUGACAGAGCACUACAGCAUCAAAGUAAAUCUUUGGGGACAGUGCCGCCCAUCUGCAUCCUAUUUAAUUUCUUCCCUUCUCCCCACCAGUGUUGUCACAGGGCUACAACAGAGGAUUGAGCAUCA
# B2: ENSG00000198589:be:win_3601|CDS|ENSG00000198589|bound_else_gene|NA|bound_elsewhere_windowed (ssRNA)
# RNA: GGGAGUUCUACAGUCCGACGAUCGUAGAAUCAGACCUUGGUCAGAUGCUGGAGGAAGGGAAGAAAGCAACUAACCUCACUAGAGAAACCAAAUUAAUUAAUGAUUGUCAUGGUAGUGUCUCUGAGGCUUCUUCUGAGCAAAAGCAACAGAGGAUUGAGCAUCA
# B3: chr1:225789428:225789553:+|3pUTR|ENSG00000143742|unk|total|mutant (ssRNA)
# RNA: GGGAGUUCUACAGUCCGACGAUCUCCGAGAAAGUGUUGGGACAGAAAGUACUUUAUGUAACUAAGUGGGCUGUUCAGAAGCUCCGAGGUCAUUUUUUGUAAUUUUCUUUUUAAUUACUUCCGAGAGCCCGGGAUGCAAAUGUUCAACAGAGGAUUGAGCAUCA
# B4: chr15:63071210:63071313:+|3pUTR|ENSG00000140416|unk|total|mutant (ssRNA)
# RNA: GGGAGUUCUACAGUCCGACGAUCCCUUAAAUGCAAUUUAUUUACUUUUACCACUGUCACAGAAACAUCCACAAGAUACCAGCCCGGUCAGGGGGUGGGGAAAACACAUACAAAAAGGCAAGCCCAUGUCAGGGCGAUCCUGGUCAACAGAGGAUUGAGCAUCA
# B5: ENSG00000124766:be:win_3251|3pUTR|ENSG00000124766|bound_else_gene|NA|bound_elsewhere_windowed (ssRNA)
# RNA: GGGAGUUCUACAGUCCGACGAUCUCUCACACAGUUUAAAAAAUCAGCCCCUAAUUUCUCCAUGUUUACACUUCAAUCUGCAGGCUUCUUAAAGUGACAGUAUCCCUUAACCUGCCACCAGUGUCCACCCUCCGGCCCCCGUCUCAACAGAGGAUUGAGCAUCA
# B6: chr15:80137503:80137604:+|CDS|ENSG00000086666|unk|total|mutant (ssRNA)
# RNA: GGGAGUUCUACAGUCCGACGAUCCAAUUGCUCUUACAAUUACAAAGCCGAUGCUGCUGAGAAAAUCAGAAAAGAAAAUCCAGCCGUUGUUGGUGAAAAGAUCCAAAAGAUUUGAACUCCUGCUGGAAUACAAAAUUCUUGAGCCAACAGAGGAUUGAGCAUCA
# B7: chr7:82953248:82953350:-|CDS|ENSG00000186472|unk|total|mutant (ssRNA)
# RNA: GGGAGUUCUACAGUCCGACGAUCAACAGAUAUACACCCCAAACCAACAGGCCUAUCUUUAACUUCAAGUAUGACCUUAAAUUCCGUGACUUCAGCAGAUUAUAAAUUGCCUUCCCCUACCUCCCCACUUUCCCCACACUCCAACAACAGAGGAUUGAGCAUCA
# B8: chr12:51809400:51809501:+|3pUTR|ENSG00000196876|unk|FALSE|unique (ssRNA)
# RNA: GGGAGUUCUACAGUCCGACGAUCCUGCCUUGCAGUAGAAGCACUUUGAAGGUAAUUUCACAGUCCACCAGACUAGUUUUGCAUAGAACAAACCACAGUAAGUCGGCAAGCAGAGCUUUCUAUCUUGUUGGACCACUAGAAACUCAACAGAGGAUUGAGCAUCA
# B9: chr2:197486603:197486717:-|3pUTR|ENSG00000144381|unk|FALSE|unique (ssRNA)
# RNA: GGGAGUUCUACAGUCCGACGAUCCCACCAGAUGAGAAGUUAAGCAGCCUUUCUGUGGAGAGUGAGAAUAAUUGUGUACAAAGUAGAGAAGUAUCCAAUUAUGUGACAACCUUUGUGUAAUAAAAAUUUGUUUAAAGUUAAUAACAACAGAGGAUUGAGCAUCA
# B10: ENSG00000070961:be:win_5001|3pUTR|ENSG00000070961|bound_else_gene|NA|bound_elsewhere_windowed (ssRNA)
# RNA: GGGAGUUCUACAGUCCGACGAUCGAAUCAGAUUAAGAAAAUUAACACAAUUUUACCAUUUGACAUACUCUUCAUUGAAUUUAGUUUGUCUAAAAUAGUCUCACAGGUAAAAAACAUAACAACAAUGACCACCAUUGUCUUUGACAACAGAGGAUUGAGCAUCA
# B11: chrX:21994482:21994713:+|3pUTR|ENSG00000102172|msi1|total|mutant (ssRNA)
# RNA: GGGAGUUCUACAGUCCGACGAUCCAGCUGAAGGAUGGUCCGACAGCACAGCGAAGACUGCUAAAUGCACUGACCCCCCCCAUCCGAAUGUGAUUUUUGUUCCUUUUUAUUUCUCUGUGGGCUUUUGUUUUUGUUUUUGUUUUGCAACAGAGGAUUGAGCAUCA
# B12: ENSG00000107863:be:win_5901|3pUTR|ENSG00000107863|bound_else_gene|NA|bound_elsewhere_windowed (ssRNA)
# RNA: GGGAGUUCUACAGUCCGACGAUCAAGUAAAAAAACUACUGUUACACGUUCCAGUAACUCUGUCAAUAUUUUCUUGUAUCAGAAUUGUUAUUAUGCAGCCUUCAUUUGGGCUGGUUUCAUCAUUUUGCACUGUGAAAUAGCUUUCAACAGAGGAUUGAGCAUCA
# B13: chr22:29286963:29287064:+|CDS|ENSG00000182944|unk|FALSE|unique (ssRNA)
# RNA: GGGAGUUCUACAGUCCGACGAUCCAGAGCAGUUACUCUCAGCAGAACACCUAUGGGCAACCGAGCAGCUAUGGACAGCAGAGUAGCUAUGGUCAACAAAGCAGCUAUGGGCAGCAGCCUCCCACUAGUUACCCACCCCAAACUCAACAGAGGAUUGAGCAUCA
# B14: chr8:17753977:17754079:-|CDS|ENSG00000129422|unk|FALSE|bound_elsewhere (ssRNA)
# RNA: GGGAGUUCUACAGUCCGACGAUCAAAAAAGCAGAAAUUCUAAUUAACAAGACACAUAAGCAGCAGUUUAAUAAACUCAUUACUAGCCAGGCUGUGCAUGUUACAACUCAUUCUAAAAAUGCUUCACACAGGGUUCCAAGAACACAACAGAGGAUUGAGCAUCA
# Target: MSI1 full-length (mouse, UniProt Q61474 1-362)
# UniProt Q61474, sequence (Q61474 whole entry): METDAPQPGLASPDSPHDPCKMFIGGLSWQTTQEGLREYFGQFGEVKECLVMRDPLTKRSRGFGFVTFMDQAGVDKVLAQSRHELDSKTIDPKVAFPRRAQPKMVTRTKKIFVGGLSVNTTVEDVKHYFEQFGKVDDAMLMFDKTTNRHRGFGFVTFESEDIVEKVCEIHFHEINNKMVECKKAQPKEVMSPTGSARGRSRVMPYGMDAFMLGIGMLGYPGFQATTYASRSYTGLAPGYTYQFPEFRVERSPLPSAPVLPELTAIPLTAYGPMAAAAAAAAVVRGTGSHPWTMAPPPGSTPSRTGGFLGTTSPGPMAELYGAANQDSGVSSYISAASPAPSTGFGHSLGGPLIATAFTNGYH
# Experiment: nsRBNS (natural sequence RNA bind-n-seq); RBNS binding buffer (assumed for nsRBNS): 25 mM Tris pH 7.5, 150 mM KCl, 3 mM MgCl2, 0.01% Triton X-100, 500 ug/ml BSA, 20 U/ml SUPERase-In, 4 C; UNK is unkempt and MSI1 is Musashi-1; names of the RNAs are library labels; protein concentration not given here; high values mean tight binding
row,Binder,binding signal [enrichment R]
1,B1,0.787
2,B2,0.919
3,B3,0.338
4,B4,1.54
5,B5,2.13
6,B6,0.296
7,B7,1.41
8,B8,3.86
9,B9,5.38
10,B10,1.98
11,B11,0.697
12,B12,0.308
13,B13,0.99
14,B14,2.45
